Measured values: PubChem BioAssay AID624417 (National Center for Advancing Translational Sciences (NCATS), 2012)
Screen size: about 410,000 compounds; about 6,400 (1.6%) were called active. The inconclusive results got no clear call from the source; some entries with a clear call stand among them for comparison. Calls follow the shape of the dose curve; as a rule, active = well fitted inhibition curve with a large enough effect; inconclusive = small, poorly fitted or top-dose-only effect; inactive = no such curve, though single readings can be large or run the other way. Potencies of inconclusive entries are left out as doubtful fits.
Also: nearly all actives have a fitted effect of over 55% in size.
Potency is read from the fitted curve at half-maximal effect; tags tell the direction and shape of the fitted curve.

Each compound was assayed against Glucagon-like peptide 1 receptor (Homo sapiens) (UniProt P43220) (assay: qHTS of GLP-1 Receptor Inverse Agonists (Inhibition Mode)). Details: HEK293 GLP-1R CRE-luciferase, luminescence, 24 h; Potency: GLP-1R form is constitutively active unless noted; series mostly up to 38.3 µM.
Chain of UniProt P43220 (P43220 whole entry, looked up): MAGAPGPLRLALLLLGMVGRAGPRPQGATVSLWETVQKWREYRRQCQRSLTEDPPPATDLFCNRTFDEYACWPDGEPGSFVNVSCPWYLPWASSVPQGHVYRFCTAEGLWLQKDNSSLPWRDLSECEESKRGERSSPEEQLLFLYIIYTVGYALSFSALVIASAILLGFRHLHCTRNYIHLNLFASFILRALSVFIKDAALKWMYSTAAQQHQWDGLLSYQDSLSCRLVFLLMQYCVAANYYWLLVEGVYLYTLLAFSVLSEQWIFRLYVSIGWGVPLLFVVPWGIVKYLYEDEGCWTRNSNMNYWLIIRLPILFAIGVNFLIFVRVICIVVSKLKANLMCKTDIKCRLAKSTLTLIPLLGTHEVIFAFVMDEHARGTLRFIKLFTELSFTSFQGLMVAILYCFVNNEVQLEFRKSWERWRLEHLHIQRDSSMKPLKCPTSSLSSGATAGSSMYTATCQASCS
Summary of the method: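 Readout was luciferase luminescence, measured 12 min after detection reagent at room temperature. Beforehand, GLP-1R reporter HEK293 cells had sat 12 h, then received compounds for 24 hr at 37 deg C.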
In the case of `O=C(CCCN1CCC2(CC1)C(=O)NCN2c1ccccc1)c1ccc(F)cc1`, the Potency is reported as inconclusive [inhibitor, partial curve, poor fit]. In the case of `CC(=NCCC(c1ccccc1)c1ccccc1)c1c(O)n(C)c(=O)n(C)c1=O`, the Potency is reported as “inactive”. `CC(C)C[C@H]1C(=O)N2CCC[C@H]2[C@]2(O)O[C@](NC(=O)[C@@H]3C=C4c5cccc6[nH]cc(c56)C[C@H]4N(C)C3)(C(C)C)C(=O)N12` was tested, and the Potency was “inactive”. `CC(=O)Nc1cnc(-c2ccccc2O)cn1` was tested, and the Potency was inconclusive [inhibitor, single point]. `COc1ccc(C(c2nnnn2-c2ccc(OC)cc2)N2CCC(n3c(=O)[nH]c4ccccc43)CC2)cc1` (stereo unspecified) was tested, and the Potency was inconclusive [inhibitor, full curve]. With `Cc1ccccc1NC(=O)c1cc(-c2ccccc2)n(CCCN2CCOCC2)c1C` the Potency was inconclusive [inhibitor, partial curve, poor fit]. In the case of `CCOC(=O)c1[nH]c2ccc(OC)cc2c1C(SCC(=O)O)c1ccc(C(F)(F)F)cc1` (stereo unspecified), the Potency is reported as inconclusive [inhibitor, single point]. With `COC(=O)C1=C(c2cc3ccccc3o2)C[C@@H]2CC[C@H]1N2C(=O)NCc1ccco1` the Potency was inconclusive [inhibitor, single point]. For `CC(=O)O[C@@]12CO[C@@H]1C[C@@H](O)[C@@]1(C)C(=O)[C@H](O)C3=C(C)[C@@H](OC(=O)[C@H](O)[C@@H](NC(=O)c4ccccc4)c4ccccc4)C[C@@](O)([C@@H](OC(=O)c4ccccc4)C12)C3(C)C` (stereo partly specified), the Potency was inconclusive [inhibitor, full curve, poor fit]. With `COc1cccc(CN2C(=O)C3(SCC(=O)N3c3ccc(C)c(Cl)c3)c3ccccc32)c1` (stereo unspecified) the Potency was inconclusive [inhibitor, single point]. `CCOC(=O)c1cc2cc(OC)ccc2n1C1CCN(Cc2ccccc2)CC1` was tested, and the Potency was inconclusive [inhibitor, single point]. For `CC(C)CCOP(=O)(c1ccc(N(C)C)cc1)C(O)c1ccc(Cl)cc1Cl` (stereo unspecified), the Potency was active: 6.31 µM [setting not given]. With `Brc1ccc(-[n+]2c(-c3ccccc3)cc(-c3ccccc3)cc2-c2ccccc2)cc1` the Potency was inconclusive [inhibitor, full curve]. For `COc1ccc(CCNCc2ccc(SC)cc2)cc1`, the Potency was “inactive”. For `CCOC(=O)C1(c2ccccc2)CCN(CC(=O)Nc2ccc(C)cc2)CC1`, the Potency was active: 8.91 µM [setting not given]. In the case of `CCCCC(=O)Nc1c(C(=O)N2CCN(c3ccccc3F)CC2)oc2ccccc12`, the Potency is reported as inconclusive [inhibitor, single point].
